The campaign covered roughly 310,000 compounds. About 14,000 (4.5%) showed an effect of 50% or more. The effect is printed as a negative number. Some of the results follow.
Each compound was assayed against human ether-à-go-go-related gene (hERG) potassium channel (human, UniProt Q12809) (assay: primary screen, population patch clamp on CHO cells stably expressing hERG).
Sequence of human ether-à-go-go-related gene (hERG) potassium channel (Q12809 whole entry, looked up): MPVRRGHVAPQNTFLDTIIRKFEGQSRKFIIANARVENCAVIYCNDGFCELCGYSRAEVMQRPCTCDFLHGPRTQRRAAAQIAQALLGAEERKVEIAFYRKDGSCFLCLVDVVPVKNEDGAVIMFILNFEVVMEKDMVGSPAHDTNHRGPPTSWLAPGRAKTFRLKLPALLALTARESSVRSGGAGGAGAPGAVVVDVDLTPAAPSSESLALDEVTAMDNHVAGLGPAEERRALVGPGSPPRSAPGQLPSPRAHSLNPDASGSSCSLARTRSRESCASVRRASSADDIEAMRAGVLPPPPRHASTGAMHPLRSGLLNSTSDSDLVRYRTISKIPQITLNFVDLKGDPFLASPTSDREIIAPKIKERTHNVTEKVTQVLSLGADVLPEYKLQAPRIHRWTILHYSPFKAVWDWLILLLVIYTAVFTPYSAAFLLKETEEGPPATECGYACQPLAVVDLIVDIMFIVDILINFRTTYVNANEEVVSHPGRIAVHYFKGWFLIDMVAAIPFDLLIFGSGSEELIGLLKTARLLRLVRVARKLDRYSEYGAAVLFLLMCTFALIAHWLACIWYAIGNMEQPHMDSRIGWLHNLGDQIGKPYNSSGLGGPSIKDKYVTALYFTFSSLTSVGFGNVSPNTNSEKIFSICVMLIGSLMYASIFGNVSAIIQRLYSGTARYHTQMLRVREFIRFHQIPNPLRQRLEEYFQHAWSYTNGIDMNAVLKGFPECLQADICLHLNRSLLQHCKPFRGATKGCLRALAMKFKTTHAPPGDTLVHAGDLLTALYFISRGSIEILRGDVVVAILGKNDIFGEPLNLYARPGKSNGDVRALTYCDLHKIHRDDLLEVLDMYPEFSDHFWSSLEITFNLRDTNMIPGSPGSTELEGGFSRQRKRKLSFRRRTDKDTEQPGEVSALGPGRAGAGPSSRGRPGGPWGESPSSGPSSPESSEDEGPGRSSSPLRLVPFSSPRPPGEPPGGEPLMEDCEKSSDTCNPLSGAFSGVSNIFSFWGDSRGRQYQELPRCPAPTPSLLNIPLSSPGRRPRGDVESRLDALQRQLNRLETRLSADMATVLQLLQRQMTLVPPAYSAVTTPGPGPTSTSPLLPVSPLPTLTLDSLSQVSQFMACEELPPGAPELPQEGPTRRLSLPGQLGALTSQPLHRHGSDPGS
For `Cc1nc2c(-c3ccccc3)c[nH]n2c(=O)c1Cc1ccccc1`, the “hERG current change (%, negative = inhibition) at 10uM” value was 10.6%.
With `CCOc1ccccc1CN1CCN(Cc2c[nH]c3ccccc23)CC1CCO` (stereo not shown) the “hERG current change (%, negative = inhibition) at 10uM” value was -6.71%.
In the case of `Cc1nnc(SC(C)C(=O)Nc2sc3c(c2C#N)CCCC3)[nH]c1=O` (stereo not shown), the “hERG current change (%, negative = inhibition) at 10uM” value is reported as 15.2%.
In the case of `CCOC(=O)COc1cccc2c(=O)n(CC(=O)N3CCN(C(=O)OCC)CC3)ccc12`, the “hERG current change (%, negative = inhibition) at 10uM” value is reported as 7.65%.
In the case of `CCCCCn1cc(C(=O)C(=O)N2CCOCC2)c2ccccc21`, the “hERG current change (%, negative = inhibition) at 10uM” value is reported as -26.3%.
`CC(/C=C/c1ccccc1)=N/NC(=O)CNC(=O)c1ccccc1F` was tested, and the “hERG current change (%, negative = inhibition) at 10uM” value was 0.863%.
For `CCN(CC(=O)NC1CCS(=O)(=O)C1)S(=O)(=O)c1ccc(Cl)cc1C(F)(F)F` (stereo not shown), the “hERG current change (%, negative = inhibition) at 10uM” value was -18.8%.
`CC(C)C[C@@]12C(=O)N(c3cccc(F)c3)C(=O)N1[C@H](c1ccc(Br)cc1)[C@@H]1C(=O)N(C(C)(C)C)C(=O)[C@@H]12` was tested, and the “hERG current change (%, negative = inhibition) at 10uM” value was 3.89%.
`Cc1ccc(C(=O)OCCN2CCN(c3ncc(C(F)(F)F)cc3Cl)CC2)cc1` was tested, and the “hERG current change (%, negative = inhibition) at 10uM” value was -2.06%.
In the case of `O=C(NCc1ccccc1)C1COc2ccccc2O1` (stereo not shown), the “hERG current change (%, negative = inhibition) at 10uM” value is reported as -2.05%.
In the case of `CN1CCN(c2nc3ccccc3c(=O)n2-c2ccccc2)CC1`, the “hERG current change (%, negative = inhibition) at 10uM” value is reported as -8.48%.
`CSCCC(NC(=O)COc1ccccc1)C(=O)NCCOc1ccc(C)cc1` (stereo not shown) was tested, and the “hERG current change (%, negative = inhibition) at 10uM” value was -7.97%.
`CC(=O)c1ccc(C(=O)N2CCCC(CCC(=O)N(C)CCc3ccccn3)C2)s1` (stereo not shown) was tested, and the “hERG current change (%, negative = inhibition) at 10uM” value was 11.4%.
With `O=C(NCC1CCCO1)C1CCN(CC2CCCCC2)CC1` (stereo not shown) the “hERG current change (%, negative = inhibition) at 10uM” value was -2.1%.
`CCN(CC)CCCNC(=O)C1CCN(C(=O)c2cc3sccc3n2Cc2ccc(F)cc2)CC1` was tested, and the “hERG current change (%, negative = inhibition) at 10uM” value was -2.11%.
In the case of `COc1ccc(-c2nnc3sc(CN4C(=O)c5ccccc5C4=O)nn23)cc1`, the “hERG current change (%, negative = inhibition) at 10uM” value is reported as 2.51%.
With `COc1ccc(NC(=O)C(c2cc3c(cc2[N+](=O)[O-])OCO3)N2CCN(C=O)CC2)cc1` (stereo not shown) the “hERG current change (%, negative = inhibition) at 10uM” value was -47.7%.
In the case of `CC(=O)c1ccc(/C=C/c2nc3ccccc3n2C)o1`, the “hERG current change (%, negative = inhibition) at 10uM” value is reported as -5.96%.
`Cc1ccc(CN2CCN(Cc3nc4ccccc4nc3C)CC2CCO)cc1` (stereo not shown) was tested, and the “hERG current change (%, negative = inhibition) at 10uM” value was -69.7%.
With `COc1ccc(NS(=O)(=O)c2cc(NC(=O)c3cnccn3)ccc2OC)cc1Br` the “hERG current change (%, negative = inhibition) at 10uM” value was 15.2%.
With `CN(C)/C=C(\C(=O)c1ccc(Cl)cc1)c1nnnn1-c1ccc(Cl)cc1` the “hERG current change (%, negative = inhibition) at 10uM” value was -25.7%.
For `O=C(N/N=C\c1ccccc1OCc1ccccc1)c1ccco1`, the “hERG current change (%, negative = inhibition) at 10uM” value was 2.38%.
In the case of `COc1ccc(S(=O)(=O)NCC2CCCN(Cc3cn(C)nc3C)C2)cc1` (stereo not shown), the “hERG current change (%, negative = inhibition) at 10uM” value is reported as 8.1%.
`CCc1cccc(NC(=O)C2CCCN(S(=O)(=O)c3cccnc3)C2)c1` (stereo not shown) was tested, and the “hERG current change (%, negative = inhibition) at 10uM” value was -5.51%.
`C(=N\N1CCOCC1)/c1cn(-c2ccccc2)nc1-c1ccccc1` was tested, and the “hERG current change (%, negative = inhibition) at 10uM” value was -23.7%.
In the case of `CC(=O)/C=C\c1cn(-c2ncc(C(F)(F)F)cc2Cl)c2ccccc12`, the “hERG current change (%, negative = inhibition) at 10uM” value is reported as 9.87%.
In the case of `O=C1CCCN1CC(O)CS(=O)(=O)Cc1ccc(Cl)cc1` (stereo not shown), the “hERG current change (%, negative = inhibition) at 10uM” value is reported as 14.9%.
`COc1ccc(NC(=O)CSc2nc3c(c(=O)n2C)SCC3)cc1OC` was tested, and the “hERG current change (%, negative = inhibition) at 10uM” value was -18.7%.
In the case of `COc1ccc(CCN(C(=O)C(F)(F)F)C(C(=O)NC2CCCC2)c2cccs2)cc1OC` (stereo not shown), the “hERG current change (%, negative = inhibition) at 10uM” value is reported as -13%.
With `O=C(NN=C1c2ccccc2-c2ccccc21)c1ccccn1` the “hERG current change (%, negative = inhibition) at 10uM” value was 5.17%.
`Cc1cccc(CN2CCN(c3nc4nonc4nc3NC3CC3)CC2=O)c1` was tested, and the “hERG current change (%, negative = inhibition) at 10uM” value was 7.7%.
In the case of `COCC(=O)N1CCCC(C(=O)c2ccc(Oc3ccccc3)cc2)C1` (stereo not shown), the “hERG current change (%, negative = inhibition) at 10uM” value is reported as -34.1%.
With `COC(=O)c1ccc(CN2CCCC(CCC(=O)NCc3ccc(C)o3)C2)cc1` (stereo not shown) the “hERG current change (%, negative = inhibition) at 10uM” value was -67.5%.
In the case of `Cc1nnc(SC(C(=O)c2ccccc2)c2ccccc2)[nH]c1=O` (stereo not shown), the “hERG current change (%, negative = inhibition) at 10uM” value is reported as -1.2%.
In the case of `Cc1nnc(-c2cnn(C)c2N)n1Cc1cccc(Cl)c1`, the “hERG current change (%, negative = inhibition) at 10uM” value is reported as 14%.
For `O=C(N/N=C/c1ccc2ccccc2c1)c1ccc(COc2ccc3c(c2)CCC3)o1`, the “hERG current change (%, negative = inhibition) at 10uM” value was 8.11%.
With `O=C(OCc1nc2ccccc2s1)c1ccc(Br)s1` the “hERG current change (%, negative = inhibition) at 10uM” value was 22.5%.
In the case of `CCn1c(C)nnc1SCC(=O)Nc1nccs1`, the “hERG current change (%, negative = inhibition) at 10uM” value is reported as 9.79%.
`CC(=O)C1=C(C)NC(SCc2cccc3ccccc23)=C(C#N)C1c1ccco1` (stereo not shown) was tested, and the “hERG current change (%, negative = inhibition) at 10uM” value was -7.34%.
In the case of `COc1ccc(-c2nc(N)ncc2-c2ccccc2)c(O)c1`, the “hERG current change (%, negative = inhibition) at 10uM” value is reported as -7.11%.
`CCn1cc(CN2CCC(C(=O)Nc3cccc(-c4cscn4)c3)CC2)cn1` was tested, and the “hERG current change (%, negative = inhibition) at 10uM” value was -15.4%.
In the case of `CCCC(=O)Nc1nc(-c2ccc3c(c2)OCCO3)cs1`, the “hERG current change (%, negative = inhibition) at 10uM” value is reported as -12.2%.
With `O=c1[nH]c2ccc(NCc3ccc(F)cc3)cc2[nH]1` the “hERG current change (%, negative = inhibition) at 10uM” value was 8.5%.
`CS(=O)(=O)N(CC(=O)N1CCc2ccccc2C1)c1ccc2c(c1)OCO2` was tested, and the “hERG current change (%, negative = inhibition) at 10uM” value was -11.8%.
`Cc1ccc(N(C(=O)Cc2cccs2)C(C(=O)NC2CCCC2)c2ccncc2)cc1` (stereo not shown) was tested, and the “hERG current change (%, negative = inhibition) at 10uM” value was 8.09%.
For `COc1ccccc1/C=C/C(=O)OCC(=O)N1c2ccccc2CC1C` (stereo not shown), the “hERG current change (%, negative = inhibition) at 10uM” value was 9.81%.
With `O=C(CSc1nnc(COc2ccc(Cl)cc2)o1)NC1CCCCC1` the “hERG current change (%, negative = inhibition) at 10uM” value was -21.5%.
`O=c1[nH]c(=O)n(-c2ccc(F)cc2)c(O)c1C=Nc1ccccc1N1CCCC1` was tested, and the “hERG current change (%, negative = inhibition) at 10uM” value was -0.133%.
In the case of `Cc1cc(C)c(C#N)c(Cl)n1`, the “hERG current change (%, negative = inhibition) at 10uM” value is reported as -2.53%.
`O=C(CCCSc1nc(-c2ccco2)cc(C(F)(F)F)n1)NCC1CCCO1` (stereo not shown) was tested, and the “hERG current change (%, negative = inhibition) at 10uM” value was -10.4%.
For `Cc1ccc(NC(=O)C2CCCN2C(=O)c2cccs2)c(C)c1` (stereo not shown), the “hERG current change (%, negative = inhibition) at 10uM” value was 12.7%.
For `O=C(O)Cn1cnc2c(=S)nc[nH]c21`, the “hERG current change (%, negative = inhibition) at 10uM” value was 14%.
In the case of `COc1cc(C#N)ccc1OCC(=O)Nc1ccc(C)c(S(=O)(=O)N2CCOCC2)c1`, the “hERG current change (%, negative = inhibition) at 10uM” value is reported as -36.1%.
`O=C(NCc1n[nH]c(=S)n1-c1ccc(Br)cc1)c1ccc(S(=O)(=O)N2CCOCC2)cc1` was tested, and the “hERG current change (%, negative = inhibition) at 10uM” value was 22.9%.
With `O=C(NCc1ccc2c(c1)OCO2)c1ccc(Cl)c(S(=O)(=O)NCc2ccccc2)c1` the “hERG current change (%, negative = inhibition) at 10uM” value was -47.3%.

Reference: paper PMC4336329 (PLoS ONE, 2015)
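Note: peak tail current of the secondary pulse compared with the same well before compound.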
